Test results as given in PubChem BioAssay AID1508624 (National Center for Advancing Translational Sciences (NCATS), 2021).
Screen size: about 48,000 compounds; about 120 (0.25%) were called active. About 4% were inconclusive and are not listed. The call rests on the fitted dose curve; in most records, active means well fitted activation curve with a large enough effect; inconclusive means small, poorly fitted or top-dose-only effect, or another doubt; inactive means no such curve, though single readings can be large or run the other way. The list shows a part of the results.

assay: Primary qHTS for Identification of Small Molecule Activators of Huntingtin-Antisense Promoter Activity; details: HEK293 HTT-AS promoter firefly luciferase reporter (activity 0% = vehicle and -100% = no light), 24 h; series mostly up to 57.5 µM; activity change, positive = activation: at the top concentration; further: nearly all actives have a fitted effect of over 55% in size
How it was run: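 HEK293 Fluc reporter, 2,500 cells/well, 24 h pre-culture; cpds up to 57.5 uM final, 24 h 37 degrees C; Dual-Glo, 10 min RT; normalized vehicle = 0%, zero RLU = -100%.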

Activity change, positive = activation, inactive:
COc1ccc(NS(=O)(=O)c2cc3c(cc2C)N(C(C)=O)CCO3)cc1 -21.6%, CC1=Nc2cc(C(=O)N3CCC(C)CC3)ccc2Sc2ccc(Cl)cc21 -30.1%, O=C1c2ccccc2CCc2ccccc21 12.9%, CCc1ccc(NC(=O)C2CCCN2S(=O)(=O)c2ccc3c(c2)CCCC(=O)N3)cc1 (configuration not stated) -19.3%, COc1ccc(CCNC(=O)c2ccc(Cn3c(=O)c4ccccc4n(Cc4cccc(F)c4)c3=O)cc2)cc1OC -34%, COc1ccc(-c2n[nH]c3c2cnc2ccc(F)cc23)cc1 26.1%, CCCSc1nc(-c2ccccc2)[nH]c1S(=O)(=O)c1ccc(C)cc1 -25.5%, Cc1ccc(-c2c(C(=O)NCCc3ccccc3)oc(=O)c3ccccc23)cc1 -33.9%, COc1ccccc1NC(=O)c1cnc(SCC(=O)N2CCOCC2)n(C)c1=O 16.5%, COc1ccc2c(c1)c1c(c(=O)n(Cc3ccccc3)c(=O)n1Cc1cccc(Cl)c1)n2C -4.06%, Cc1cc(C)c2oc(-c3ccc(Cl)c(NC(=O)c4cccs4)c3)nc2c1 -6.54%, CCn1cc(C(=O)NCCCOC)c(=O)c2cc(S(=O)(=O)N3CCc4ccccc4C3)ccc21 -5.93%, CCOC(=O)C1CCCN(CC(=O)Nc2cc(C)c3c(=O)oc4ccccc4c3n2)C1 (configuration not stated) 9.78%, Cc1cc(C)cc(NC(=O)C2CCN(S(=O)(=O)c3cn(C)cn3)CC2)c1 5.69%, O=c1oc2ccc3ccccc3c2cc1-c1nnc(Nc2ccccc2F)s1 -0.513%, Cc1ccc(-c2nc3ncccn3c2Nc2ccc3c(c2)OCCO3)cc1 -1.05%, CCc1ccc(CNc2ccc3c(c2)ncn3C(C)(C)C)cc1 19%, O=C(CCS(=O)(=O)c1ccc(Br)cc1)Nc1ccc(F)cc1F -13.6%, Cc1cccc(NS(=O)(=O)c2ccc3c(c2)CC(C)N3C(=O)C2CCC2)c1C (configuration not stated) -30.7%, COc1cccc2c1cc1c(=O)n(CC(=O)N3CCN(c4ccccc4)CC3)nc(C)n12 -3.35%, CCOc1ccc(N2CC(c3nc4ccccc4n3CCOc3ccccc3OC)CC2=O)cc1 (configuration not stated) -27.1%, O=C1CC(c2nc(-c3ccccc3)no2)CN1c1ccccc1 (configuration not stated) 9.44%, COC(=O)c1nc(Cl)c(Cl)nc1N -37.6%, CCc1nc2ccc(C(=O)NCc3cc(OC)ccc3OC)cc2nc1CC -13.8%, CCOc1ccc(CCNC(=O)CS(=O)(=O)Cc2nc(-c3ccc(OC)cc3)oc2C)cc1 -25%, COc1ccc(Cn2c(=O)n(Cc3ccco3)c(=O)c3oc4ccccc4c32)cc1 -3.84%, Cc1cccc2sc(N(CCN(C)C)C(=O)c3ccc4c(c3)OCCO4)nc12 -12.4%, COc1ccc(-c2nc(CSCC(=O)N3CCN(c4cc(Cl)ccc4C)CC3)c(C)o2)cc1 -54.7%, CCN(CC)c1ccc(NC(=O)c2cnn(-c3ccccc3)c2-n2cccc2)c(C)c1 -50.2%, Cc1ccc(Cn2c(C)c3cnn(CC(=O)NCc4ccccc4)c(=O)c3c2C)cc1 -40.2%, CC(=O)N1CCc2cc(S(=O)(=O)CCC(=O)Nc3ccc(C)cc3Br)ccc21 -19.8%, Cc1cccc(NC(=O)CSc2nc(-c3ccccc3)cc(=O)[nH]2)c1C -1.27%, Cc1ccc(C(C)C)c(OCC(O)CN2CCN(c3ccccc3F)CC2)c1 (configuration not stated) -25.2%, Cc1ccc(NC(=O)CCC(=O)N2Cc3ccccc3Oc3ncccc32)c(C)c1 -14%, CCOc1ccc(CCNC(=O)CN2C(=O)COc3ccc(S(=O)(=O)N4CCCC4)cc32)cc1 -20.2%, CCn1c(=N)c(C(=O)NCc2ccccc2)cc2c(=O)n3cccc(C)c3nc21 -4.24%, COc1ccc(-n2nnnc2C2CCN(S(=O)(=O)c3ccc(NC(C)=O)cc3)CC2)cc1 -38.7%, Cc1cccc(-c2nc(C)c(CCNC(=O)C(=O)Nc3ccccc3C#N)s2)c1 -12%, CC(C)c1ccc(C2NC(=O)c3n[nH]c(-c4cccs4)c32)cc1 (configuration not stated) -37%, COc1ccc(Cl)cc1S(=O)(=O)NCc1ccc2c(c1)CCN2C(=O)c1cccc(C)c1 -37.1%, CCOC(=O)c1ccc(N2C(=O)c3n[nH]c(-c4ccco4)c3C2c2cccc(OC)c2)cc1 (configuration not stated) -55.5%, COC(=O)c1ccc2c(=O)n(CCCCCC(=O)NCCc3ccc(Cl)cc3)c(=O)[nH]c2c1 6.52%, Cc1oc(-c2ccc(C(=O)NCc3cccc(F)c3)cc2)nc1COc1ccccc1 -11.3%, N#Cc1c(C(F)(F)F)cc(-c2ccc(F)cc2)nc1SCC(=O)Nc1ccccc1 -16.8%, CCn1c(C(=O)N2CCC(C(=O)NCCc3ccc(C)cc3)CC2)cc2sccc21 -30%, Cc1ccc(Cn2ccnc2SCC(=O)NCc2ccccc2Cl)cc1 4.56%, Cc1ccccc1NC(=O)CSc1nc2ccccc2c2nc(CCn3cncc3C)nn12 -0.485%, Cc1ccc(CNC(=O)C(C)n2nc(C)n3c(cc4sccc43)c2=O)cc1 (configuration not stated) -1.81%, CCOC(=O)C1CCCN(C(=O)c2ccc3c(c2)sc2nc(-c4ccc(CC)cc4)cn23)C1 (configuration not stated) -49.3%, COc1ccccc1C(=O)Nc1cccc(C(=O)OCc2cc(=O)n3ccsc3n2)c1 0%, Cc1ccc(S(=O)(=O)N(CC(=O)Nc2ccc(Cl)cc2Cl)c2ccccc2C)cc1 -12.3%, COc1ccc(CCNC(=O)Cc2c(C)c3cc4c(C(C)(C)C)coc4c(C)c3oc2=O)cc1 -6.23%, COc1cc(-c2noc(-c3ccc(NCC4CCCO4)c([N+](=O)[O-])c3)n2)cc(OC)c1OC (configuration not stated) -15%, Cc1ccc(C)c(Nc2cc(C(=O)NC3CCCC3)c3ccccc3n2)c1 -12%, COc1ccc(NC(=O)CC2C(=O)N(c3ccc(OC)cc3)C(=O)N2CCC2=CCCCC2)cc1 (configuration not stated) -12.1%, COc1cc(NC(=O)CSc2nc3ncccc3o2)cc(OC)c1 -11.3%, Cl/C(=C\n1cncn1)c1ccc(Cl)cc1Cl -8.23%, CN(C)C(=O)[C@H](O)[C@H](Cc1ccccc1)NC(=O)c1cc2cc(Cl)ccc2[nH]1 -33.9%, COc1ccc(-c2nc(CS(=O)(=O)CC(=O)NCc3ccccc3Br)c(C)o2)cc1 -6.78%, O=C(NCCCN1CCCCCC1)c1ccc2c(c1)sc1nc(-c3ccccc3)cn12 0.194%, Cc1nc2cc(-c3ccccc3)nn2c(C)c1CCC(=O)Nc1ccc(F)cc1F -79.2%, CCC(C(=O)Nc1ccc(C)c(C)c1)n1c(=O)c(C(F)(F)F)nc2ccccc21 (configuration not stated) 0.516%
